Some of the results follow.

From the supplement of paper PMC8728848 come the findings set out here.

Holding throughout (experiment): glycan array binding signal (z-score within array); higher = stronger binding
Holding throughout (conditions): glycan notation: IUPAC condensed, linker removed

The target of assay [1] is Gal(b1-4)GalNAc(b1-3)[Fuc(a1-2)]Gal(b1-4)GlcNAc. The gist of the method:
(§1)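 Negative Z-scores can be read as non-binding. The Z-score is calculated within each array and then averaged across arrays of one protein sequence at different concentrations or buffers and across linkers. Arrays, 3228 in all, were curated from the Consortium for Functional Glycomics database and kept only where the protein sequence was available.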

Another assay deals with Gal(b1-4)Glc. The essentials:
as §1

The next assay has as its target Gal(b1-4)Glc6S. The essentials: as §1
A further assay concerns the target Gal(b1-4)GlcNAc. The gist of the method:
as §1

Assay [2] deals with Gal(b1-4)GlcNAc(a1-6)Gal(b1-4)GlcNAc. The essentials: as §1
The target in the next assay is Gal(b1-4)GlcNAc(b1-2)Man. The essentials: as §1
For assay [3], the target named is Gal(b1-4)GlcNAc(b1-2)Man(a1-3)Man(b1-4)GlcNAc(b1-4)GlcNAc. The essentials:
as §1

Assay [4] concerns the target Gal(b1-4)GlcNAc(b1-2)Man(a1-3)[Gal(b1-4)GlcNAc(b1-2)Man(a1-6)]Man(b1-4)GlcNAc(b1-4)GlcNAc. The gist of the method: as §1
Assay [5] deals with Gal(b1-4)GlcNAc(b1-2)Man(a1-3)[Gal(b1-4)GlcNAc(b1-2)Man(a1-6)]Man(b1-4)GlcNAc(b1-4)[Fuc(a1-6)]GlcNAc. The gist of the method:
as §1

Assay [6] deals with Gal(b1-4)GlcNAc(b1-2)Man(a1-3)[Gal(b1-4)GlcNAc(b1-2)Man(a1-6)][Gal(b1-4)GlcNAc(b1-4)]Man(b1-4)GlcNAc(b1-4)[Fuc(a1-6)]GlcNAc. The gist of the method: as §1
The target of assay [7] is Gal(b1-4)GlcNAc(b1-2)Man(a1-3)[Gal(b1-4)GlcNAc(b1-2)Man(a1-6)][GlcNAc(b1-4)]Man(b1-4)GlcNAc(b1-4)[Fuc(a1-6)]GlcNAc. The gist of the method: as §1
Assay [8] deals with Gal(b1-4)GlcNAc(b1-2)Man(a1-3)[GlcNAc(b1-2)Man(a1-6)]Man(b1-4)GlcNAc(b1-4)GlcNAc. The gist of the method:
as §1

Assay [9] concerns the target Gal(b1-4)GlcNAc(b1-2)Man(a1-3)[GlcNAc(b1-4)][Gal(b1-4)GlcNAc(b1-2)Man(a1-6)]Man(b1-4)GlcNAc(b1-4)GlcNAc. The gist of the method: as §1
In assay [10] the target is Gal(b1-4)GlcNAc(b1-2)Man(a1-3)[Man(a1-6)]Man(b1-4)GlcNAc(b1-4)GlcNAc. The essentials: as §1
In assay [11] the target is Gal(b1-4)GlcNAc(b1-2)Man(a1-6)Man(b1-4)GlcNAc(b1-4)GlcNAc. The gist of the method:
as §1

In assay [12] the target is Gal(b1-4)GlcNAc(b1-2)Man(a1-6)[GlcNAc(b1-2)Man(a1-3)]Man(b1-4)GlcNAc(b1-4)GlcNAc. The gist of the method: as §1
Assay [13] has as its target Gal(b1-4)GlcNAc(b1-2)Man(a1-6)[Man(a1-3)]Man(b1-4)GlcNAc(b1-4)GlcNAc. The gist of the method: as §1
Assay [14] addresses Gal(b1-4)GlcNAc(b1-2)[Gal(b1-4)GlcNAc(b1-4)]Man(a1-3)[Gal(b1-4)GlcNAc(b1-2)Man(a1-6)]Man(b1-4)GlcNAc(b1-4)GlcNAc. The gist of the method: as §1
For assay [15], the target named is Gal(b1-4)GlcNAc(b1-2)[Gal(b1-4)GlcNAc(b1-4)]Man(a1-3)[Gal(b1-4)GlcNAc(b1-2)[Gal(b1-4)GlcNAc(b1-6)]Man(a1-6)]Man(b1-4)GlcNAc(b1-4)GlcNAc. The essentials: as §1
For assay [16], the target named is Gal(b1-4)GlcNAc(b1-2)[Gal(b1-4)GlcNAc(b1-4)]Man(a1-3)[GlcNAc(b1-4)][Gal(b1-4)GlcNAc(b1-2)Man(a1-6)]Man(b1-4)GlcNAc(b1-4)GlcNAc. The essentials: as §1
The target in assay [17] is Gal(b1-4)GlcNAc(b1-2)[Gal(b1-4)GlcNAc(b1-4)]Man(a1-3)[GlcNAc(b1-4)][Gal(b1-4)GlcNAc(b1-2)[Gal(b1-4)GlcNAc(b1-6)]Man(a1-6)]Man(b1-4)GlcNAc(b1-4)GlcNAc. The essentials:
as §1

For assay [18], the target named is Gal(b1-4)GlcNAc(b1-2)[Gal(b1-4)GlcNAc(b1-6)]Man(a1-6)[Gal(b1-4)GlcNAc(b1-2)Man(a1-3)]Man(b1-4)GlcNAc(b1-4)GlcNAc. The gist of the method:
as §1

B1: EPL1 (Trichoderma atroviride), A0PCX2 (protein)
chain: MQLSNLFKLALFTAAVSADTVSYDTGYDDASRSLTVVSCSDGTNGLITRYHWQTQGQIPRFPYIGGAQAVAGWNSPNCGTCWKLTYSGKTIYVLAIDHTAAGFNIGLDAMNALTNGNAVALGRVSATASQVAVSNCGL
Regarding B1, the “glycan array binding signal (z-score)” value in [1] was -0.032; with Gal(b1-4)Glc it was -0.231; with Gal(b1-4)Glc6S it was -0.064; in the assay with Gal(b1-4)GlcNAc, -0.107; in assay [2] it was -0.176; with Gal(b1-4)GlcNAc(b1-2)Man, -0.089. In addition, the “glycan array binding signal (z-score)” value is -0.491 in assay [3]; -0.15 in assay [4]; 0.06 in [5]; -0.401 in [6]; 0.122 in [7]; -0.496 in [8]. Further, the “glycan array binding signal (z-score)” value was -0.52 in assay [9]; 0.704 in assay [10]; -0.711 in assay [11]; 0.321 in assay [12]; -0.327 in assay [13]; 0.026 in assay [14]. Besides, the “glycan array binding signal (z-score)” value in assay [15] was 0.128; in assay [16], -0.305; in assay [17], -0.32; in assay [18], 0.245.
